Results are given in words; binding and its absence hold for the method and conditions named. For part of these data: Binding seen in cells or lysates may run through a third protein. Some binding calls cover weakened binding; strength is not graded here. For part of these data: Where a sequence is shown, tags or fusion partners need not be part of it.
What was measured:
[1] = biological target: T1, ANGPTL8, endogenous in HepG2 cells (human (endogenous in HepG2)) (UniProt Q6UXH0); assay: co-IP; endogenous proteins in untransfected HepG2 cells, left unstimulated or treated with TNFα (50 ng/mL) for the indicated times; IP with anti-IKKγ or anti-ANGPTL8; also in ANGPTL8-RNAi and ANGPTL8-deficient cells; washes with 500 mM NaCl; immunoblot
T1 sequence: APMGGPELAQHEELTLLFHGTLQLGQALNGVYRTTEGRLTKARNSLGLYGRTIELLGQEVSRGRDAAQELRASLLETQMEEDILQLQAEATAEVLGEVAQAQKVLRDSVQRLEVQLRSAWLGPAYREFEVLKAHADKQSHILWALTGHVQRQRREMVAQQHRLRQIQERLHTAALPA

Amino acid sequences for entries named in this document (tags omitted).
UniProt Q13546: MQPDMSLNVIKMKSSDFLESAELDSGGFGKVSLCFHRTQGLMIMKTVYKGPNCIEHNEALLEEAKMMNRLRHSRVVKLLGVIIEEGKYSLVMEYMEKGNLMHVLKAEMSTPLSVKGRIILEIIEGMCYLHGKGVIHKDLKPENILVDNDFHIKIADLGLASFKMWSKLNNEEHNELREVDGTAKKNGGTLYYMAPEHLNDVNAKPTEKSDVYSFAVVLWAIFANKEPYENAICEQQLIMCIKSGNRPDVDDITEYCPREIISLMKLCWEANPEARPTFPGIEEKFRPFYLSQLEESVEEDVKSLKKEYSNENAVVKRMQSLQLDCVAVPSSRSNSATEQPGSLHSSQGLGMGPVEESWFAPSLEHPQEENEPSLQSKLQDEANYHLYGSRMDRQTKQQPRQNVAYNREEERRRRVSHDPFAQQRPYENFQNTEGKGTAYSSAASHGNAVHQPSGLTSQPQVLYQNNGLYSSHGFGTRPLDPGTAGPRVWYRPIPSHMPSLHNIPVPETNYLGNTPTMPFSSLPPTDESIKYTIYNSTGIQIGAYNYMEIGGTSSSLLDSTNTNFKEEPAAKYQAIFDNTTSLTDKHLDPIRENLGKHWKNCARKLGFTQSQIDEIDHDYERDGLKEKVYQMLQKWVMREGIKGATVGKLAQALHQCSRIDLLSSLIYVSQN
UniProt O88522: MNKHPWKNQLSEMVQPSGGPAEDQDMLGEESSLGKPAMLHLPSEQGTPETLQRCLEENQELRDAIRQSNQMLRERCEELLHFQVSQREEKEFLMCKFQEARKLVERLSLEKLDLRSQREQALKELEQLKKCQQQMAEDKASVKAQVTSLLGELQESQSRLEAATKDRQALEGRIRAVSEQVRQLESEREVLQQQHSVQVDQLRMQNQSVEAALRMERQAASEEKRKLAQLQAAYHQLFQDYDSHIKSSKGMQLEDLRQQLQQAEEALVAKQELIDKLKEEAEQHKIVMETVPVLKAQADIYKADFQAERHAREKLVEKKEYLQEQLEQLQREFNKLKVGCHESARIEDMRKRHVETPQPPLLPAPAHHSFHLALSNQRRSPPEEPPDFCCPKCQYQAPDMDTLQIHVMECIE

[2] = biological target: T2, Angptl8, endogenous in mouse liver (mouse (endogenous in liver)) (UniProt Q8R1L8); assay: co-IP; liver lysates of C57BL/6 mice injected i.p. with LPS (3 mg/kg) for 0, 1 or 6 h; equal amounts of lysate of the animals of one time point mixed; immunoblot
T2 sequence: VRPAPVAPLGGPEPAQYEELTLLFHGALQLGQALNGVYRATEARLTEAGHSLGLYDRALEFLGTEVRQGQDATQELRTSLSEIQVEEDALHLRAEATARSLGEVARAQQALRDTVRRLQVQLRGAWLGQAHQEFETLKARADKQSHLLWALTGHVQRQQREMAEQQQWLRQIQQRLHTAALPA

[3] = biological target: T3, ANGPTL8-Δ26–70 truncation mutant (human) (UniProt Q6UXH0); assay: co-IP; transfected HEK293T cells (mammalian overexpression system), with or without TNFα; lysis in 20 mM Tris-HCl pH 7.4, 150 mM NaCl, 1 mM EDTA, 1% Triton X-100; 0.5 μg antibody and GammaBind Plus-Sepharose, 4 °C, 4 h; washes with 500 mM NaCl; immunoblot
T3 sequence: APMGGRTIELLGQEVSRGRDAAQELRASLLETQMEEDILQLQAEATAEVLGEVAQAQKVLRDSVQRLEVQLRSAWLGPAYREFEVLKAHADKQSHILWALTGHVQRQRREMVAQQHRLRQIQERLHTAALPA

[4] = biological target: T4, angiopoietin-like 8 (ANGPTL8), full length, Flag- or HA-tagged, overexpressed (human) (UniProt Q6UXH0); assay: as above
T4 sequence: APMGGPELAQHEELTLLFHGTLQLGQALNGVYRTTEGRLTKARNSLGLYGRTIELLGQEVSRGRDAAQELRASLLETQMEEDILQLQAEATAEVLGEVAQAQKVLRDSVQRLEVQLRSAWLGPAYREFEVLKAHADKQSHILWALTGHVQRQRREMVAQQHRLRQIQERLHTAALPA

[5] = biological target: IKKγ, endogenous in HepG2 cells (human (endogenous in HepG2)) (UniProt Q9Y6K9); assay: co-IP; endogenous proteins in untransfected HepG2 cells, left unstimulated or treated with TNFα (50 ng/mL) for the indicated times; IP with anti-IKKγ or anti-ANGPTL8; also in ANGPTL8-RNAi and ANGPTL8-deficient cells; washes with 500 mM NaCl; immunoblot
[6] = biological target: recombinant ANGPTL8, purified (human) (UniProt Q6UXH0); assay: dynamic light scattering + far-Western, overlay or dot blot; purified recombinant ANGPTL8 incubated in solution; DLS at room temperature, scattering angle 90°; dot blots probed with anti-oligomer (A-11) and anti-fibril (OC) antibodies; oligomers and fibrils also seen by transmission electron microscopy; both purified

With “RIP1, endogenous in HepG2 cells (from UniProt Q13546 1-671)” the binding [1] was “binds”.

In the case of “Ikkγ, endogenous in mouse liver (from UniProt O88522 1-412)”, the binding [2] is reported as “binds”.

For “p62, HA- or Flag-tagged, overexpressed (from UniProt Q13501 1-440)”, the binding [3] was “binds” and the binding [4] was “binds”.

For “receptor interacting protein 1 (RIP1), Flag-tagged, overexpressed (from UniProt Q13546 1-671)”, the binding [4] was “binds”.

“p62, endogenous in HepG2 cells (from UniProt Q13501 1-440)” was tested, and the binding [5] was “binds” and the binding [1] was “binds”.

In the case of “IKKγ (NF-κB essential modulator, NEMO), Flag- or HA-tagged, overexpressed (from UniProt Q9Y6K9 1-419)”, the binding [4] is reported as “binds”.

For “IKKγ, endogenous in HepG2 cells (from UniProt Q9Y6K9 1-419)”, the binding [1] was “binds”.

B1: recombinant ANGPTL8, purified (protein, UniProt Q6UXH0 22-198)
chain: APMGGPELAQHEELTLLFHGTLQLGQALNGVYRTTEGRLTKARNSLGLYGRTIELLGQEVSRGRDAAQELRASLLETQMEEDILQLQAEATAEVLGEVAQAQKVLRDSVQRLEVQLRSAWLGPAYREFEVLKAHADKQSHILWALTGHVQRQRREMVAQQHRLRQIQERLHTAALPA
For B1, the binding [6] was “binds”.

B2: IKKβ, Flag-tagged, overexpressed (protein, UniProt O14920 1-756)
chain: MSWSPSLTTQTCGAWEMKERLGTGGFGNVIRWHNQETGEQIAIKQCRQELSPRNRERWCLEIQIMRRLTHPNVVAARDVPEGMQNLAPNDLPLLAMEYCQGGDLRKYLNQFENCCGLREGAILTLLSDIASALRYLHENRIIHRDLKPENIVLQQGEQRLIHKIIDLGYAKELDQGSLCTSFVGTLQYLAPELLEQQKYTVTVDYWSFGTLAFECITGFRPFLPNWQPVQWHSKVRQKSEVDIVVSEDLNGTVKFSSSLPYPNNLNSVLAERLEKWLQLMLMWHPRQRGTDPTYGPNGCFKALDDILNLKLVHILNMVTGTIHTYPVTEDESLQSLKARIQQDTGIPEEDQELLQEAGLALIPDKPATQCISDGKLNEGHTLDMDLVFLFDNSKITYETQISPRPQPESVSCILQEPKRNLAFFQLRKVWGQVWHSIQTLKEDCNRLQQGQRAAMMNLLRNNSCLSKMKNSMASMSQQLKAKLDFFKTSIQIDLEKYSEQTEFGITSDKLLLAWREMEQAVELCGRENEVKLLVERMMALQTDIVDLQRSPMGRKQGGTLDDLEEQARELYRRLREKPRDQRTEGDSQEMVRLLLQAIQSFEKKVRVIYTQLSKTVVCKQKALELLPKVEEVVSLMNEDEKTVVRLQEKRQKELWNLLKIACSKVRGPVSGSPDSMNASRLSQPGQLMSQPSTASNSLPEPAKKSEELVAEAHNLCTLLENAIQDTVREQDQSFTALDWSWLQTEEEEHSCLEQAS
B2 was tested, and the binding [4] was “binds”.

B3: angiopoietin-like 8 (ANGPTL8), full length, Flag- or HA-tagged, overexpressed (protein, UniProt Q6UXH0 22-198)
chain: APMGGPELAQHEELTLLFHGTLQLGQALNGVYRTTEGRLTKARNSLGLYGRTIELLGQEVSRGRDAAQELRASLLETQMEEDILQLQAEATAEVLGEVAQAQKVLRDSVQRLEVQLRSAWLGPAYREFEVLKAHADKQSHILWALTGHVQRQRREMVAQQHRLRQIQERLHTAALPA
For B3, the binding [4] was “binds”.

B4: IKKβ, endogenous in HepG2 cells (protein, UniProt O14920 1-756)
chain: MSWSPSLTTQTCGAWEMKERLGTGGFGNVIRWHNQETGEQIAIKQCRQELSPRNRERWCLEIQIMRRLTHPNVVAARDVPEGMQNLAPNDLPLLAMEYCQGGDLRKYLNQFENCCGLREGAILTLLSDIASALRYLHENRIIHRDLKPENIVLQQGEQRLIHKIIDLGYAKELDQGSLCTSFVGTLQYLAPELLEQQKYTVTVDYWSFGTLAFECITGFRPFLPNWQPVQWHSKVRQKSEVDIVVSEDLNGTVKFSSSLPYPNNLNSVLAERLEKWLQLMLMWHPRQRGTDPTYGPNGCFKALDDILNLKLVHILNMVTGTIHTYPVTEDESLQSLKARIQQDTGIPEEDQELLQEAGLALIPDKPATQCISDGKLNEGHTLDMDLVFLFDNSKITYETQISPRPQPESVSCILQEPKRNLAFFQLRKVWGQVWHSIQTLKEDCNRLQQGQRAAMMNLLRNNSCLSKMKNSMASMSQQLKAKLDFFKTSIQIDLEKYSEQTEFGITSDKLLLAWREMEQAVELCGRENEVKLLVERMMALQTDIVDLQRSPMGRKQGGTLDDLEEQARELYRRLREKPRDQRTEGDSQEMVRLLLQAIQSFEKKVRVIYTQLSKTVVCKQKALELLPKVEEVVSLMNEDEKTVVRLQEKRQKELWNLLKIACSKVRGPVSGSPDSMNASRLSQPGQLMSQPSTASNSLPEPAKKSEELVAEAHNLCTLLENAIQDTVREQDQSFTALDWSWLQTEEEEHSCLEQAS
In the case of B4, the binding [1] is reported as “binds”.

B5: ANGPTL8 truncation mutant 71-C (domain or fragment, UniProt Q6UXH0 71-198)
chain: GRTIELLGQEVSRGRDAAQELRASLLETQMEEDILQLQAEATAEVLGEVAQAQKVLRDSVQRLEVQLRSAWLGPAYREFEVLKAHADKQSHILWALTGHVQRQRREMVAQQHRLRQIQERLHTAALPA
For B5, the binding [4] was “no binding”.

B6: ANGPTL8-Δ26–70 truncation mutant (protein, UniProt Q6UXH0)
chain: APMGGRTIELLGQEVSRGRDAAQELRASLLETQMEEDILQLQAEATAEVLGEVAQAQKVLRDSVQRLEVQLRSAWLGPAYREFEVLKAHADKQSHILWALTGHVQRQRREMVAQQHRLRQIQERLHTAALPA
For B6, the binding [4] was “no binding”.
